# Results as given in the supplement of paper PMC9446081.
# In all, about 39,000 compounds went through this assay and about 220 (0.56%) showed activity. The list shows a part of the results.
# Tested on: Escherichia coli K-12 BW25113
# Assay: relative growth (OD600 normalised to plate interquartile mean) (fraction); higher = less growth inhibition, active = 0.2 or less
# Conditions: 50 µM; LB; incubation time: overnight (16-24 h)
# 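Further: static incubation at 37 °C against the wild-type strain, values averaged over two biological replicates.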
row,Structure (SMILES),relative growth
1,CS(=O)(=O)N1CCC2(CC1)CN(CCn1cccn1)C(=O)CO2,inactive: 0.992
2,Cc1ccc(S(=O)(=O)Nc2ccc3c(c2)C(=O)N([C@H](C)CO)C[C@@H](C)[C@H](CN(C)Cc2ccc(-c4ccccc4)cc2)O3)cc1,inactive: 1.01
3,C[C@@H]1CCCCO[C@@H](CN(C)Cc2ccncc2)[C@@H](C)CN([C@H](C)CO)C(=O)c2cc(NS(C)(=O)=O)ccc2O1,inactive: 1.03
4,C1CC1c1noc(C2CNC2)n1,inactive: 0.974
5,Cc1noc(C)c1NC(=O)N(C)C[C@H]1OCCCC[C@H](C)Oc2ccc(NC(=O)CCC(F)(F)F)cc2C(=O)N([C@@H](C)CO)C[C@H]1C,inactive: 1.01
6,Cc1ccccc1S(=O)(=O)N1C[C@@H](O)COC[C@@H]2O[C@@H](CC(=O)N3CCOCC3)CC[C@H]21,inactive: 1.01
7,CC1(C)[C@@H](OC(=O)CCC(=O)O)CC[C@]2(C)[C@H]3C(=O)C=C4[C@@H]5C[C@@](C)(C(=O)O)CC[C@]5(C)CC[C@@]4(C)[C@]3(C)CC[C@@H]12,inactive: 1.02
8,COCCOC(=O)N1C(=O)[C@@]2(c3cc(C#Cc4ccc(OC)cc4)ccc31)[C@H](c1ccc(OCCO)cc1)N1[C@H](c3ccccc3)[C@H](c3ccccc3)OC(=O)[C@H]1[C@@H]2C(=O)NC[C@H](O)c1ccccc1,inactive: 1.04
9,C[C@H]1CN([C@@H](C)CO)C(=O)c2cc(NC(=O)Nc3ccc(F)cc3)ccc2O[C@H]1CN(C)Cc1ccc(C(=O)Nc2ccccc2N)cc1,inactive: 1.01
10,O=C1[O][Bi]([OH])[O]c2ccccc21,inactive: 1.05
11,C[C@@H]1CN([C@H](C)CO)C(=O)c2cc(NC(=O)CCCCCC(=O)Nc3ccccc3N)ccc2O[C@@H]1CN(C)Cc1ccccc1,inactive: 1.03
12,C[C@@H]1CCCCO[C@H](CN(C)S(=O)(=O)c2ccc(F)cc2)[C@H](C)CN([C@@H](C)CO)C(=O)c2cc(NC(=O)Nc3cccc4ccccc34)ccc2O1,inactive: 0.985
13,COc1ccc(CN(C)C[C@@H]2Oc3c(NC(=O)c4cc(C)nn4C)cccc3C(=O)N([C@@H](C)CO)C[C@H]2C)cc1,inactive: 0.957
14,Cc1onc(-c2ccccc2)c1CN,inactive: 0.978
15,CS(=O)(=O)O.OC(CCN1CCCCC1)(c1ccccc1)c1ccccc1,inactive: 1.12
16,Cc1ccc(S(=O)(=O)Nc2cccc3c2O[C@H](CN(C)CC2CC2)[C@@H](C)CN([C@@H](C)CO)C3=O)cc1,inactive: 0.993
17,C[C@H](CO)N1C[C@H](C)[C@H](CN(C)C)OCCCC[C@H](C)Oc2ccc(NS(=O)(=O)c3cn(C)cn3)cc2C1=O,inactive: 0.977
18,COc1ccc(NC(=O)Nc2ccc3c(c2)[C@H]2C[C@@H](CC(=O)NCc4ccccn4)O[C@@H](CO)[C@H]2O3)cc1,inactive: 0.994
19,Cc1noc(C)c1S(=O)(=O)Nc1ccc2c(c1)CC(=O)N([C@H](C)CO)C[C@@H](C)[C@@H](CN(C)Cc1ccc(C(=O)O)cc1)O2,inactive: 0.985

row,Structure (SMILES),relative growth
1,O=C(Cn1cc(COc2ccc(-n3cccc3)cc2)nn1)NS(=O)(=O)c1ccccc1C(F)(F)F,inactive: 1
2,CS(=O)(=O)N1CCN2C[C@H](C(=O)O)CN(Cc3ccco3)C[C@@H]2C1,inactive: 1.01
3,C[C@@H]1CCCCO[C@H](CN(C)Cc2ccncc2)[C@H](C)CN([C@@H](C)CO)C(=O)c2cc(NC(=O)Nc3ccccc3)ccc2O1,inactive: 0.98
4,C=CCOC(=O)[C@@H]1[C@H]2C(=O)O[C@H](c3ccccc3)[C@H](c3ccccc3)N2[C@H](c2ccc(OCCOC(=O)[C@H]3C[C@H]4C(=O)N[C@@H](CC(C)C)C(=O)N4[C@H]3c3ccc(O)cc3)cc2)[C@@]12C(=O)Nc1ccc(I)cc12,inactive: 1.06
5,C[C@H]1CN([C@@H](C)CO)C(=O)c2cc(NS(=O)(=O)c3ccc(Cl)cc3)ccc2O[C@@H]1CN(C)C(=O)Nc1cccc2ccccc12,inactive: 0.991
6,C[C@H](CO)N1C[C@H](C)[C@H](CN(C)Cc2ccc(Oc3ccccc3)cc2)Oc2ccc(NC(=O)CCCCCC(=O)Nc3ccccc3N)cc2CC1=O,inactive: 0.94
7,C[C@@H]1CN([C@@H](C)CO)C(=O)Cc2cc(NC(=O)CCN3CCOCC3)ccc2O[C@H]1CN(C)C(=O)Nc1ccccc1,inactive: 0.96
8,CC(C)NC(=O)N(C)C[C@@H]1Oc2ccc(NC(=O)CCCN(C)C)cc2C(=O)N([C@H](C)CO)C[C@@H]1C,inactive: 0.948
9,C[C@H]1OC(=O)CC[C@@H](O)/C=C/[C@@H](O)[C@@H]1O,inactive: 0.988
10,COCC#Cc1ccc2c(c1)O[C@@H](CN(C)C(=O)Nc1ccc(OC)cc1)[C@@H](C)CN([C@@H](C)CO)S2(=O)=O,inactive: 1.03
11,C[C@@H]1CCCCO[C@H](CN(C)S(=O)(=O)c2ccc(Cl)cc2)[C@@H](C)CN([C@H](C)CO)C(=O)c2cc(NC(=O)NC3CCCCC3)ccc2O1,inactive: 0.975
12,C[C@@H]1CN([C@H](C)CO)C(=O)c2cc(-c3cccnc3)cnc2O[C@@H]1CN(C)Cc1ccc(Oc2ccccc2)cc1,inactive: 1.01
13,COc1ccc(S(=O)(=O)Nc2ccc3c(c2)C(=O)N([C@H](C)CO)C[C@H](C)[C@@H](CN(C)Cc2ccc(C(=O)O)cc2)OCCCC[C@H](C)O3)cc1,inactive: 0.992
14,COc1ccccc1CNC(=O)C[C@@H]1CC[C@@H]2[C@H](COC[C@@H](O)CN2C(=O)Nc2ccc(Cl)cc2)O1,inactive: 0.883
15,C[C@H]1CN([C@@H](C)CO)C(=O)c2cccc(NS(=O)(=O)c3ccc(F)cc3)c2O[C@H]1CN(C)CC1CC1,inactive: 0.994
16,Cc1noc(C)c1S(=O)(=O)Nc1ccc2c(c1)C(=O)N([C@H](C)CO)C[C@@H](C)[C@@H](CN(C)Cc1ccc(Cl)c(Cl)c1)OCCCC[C@H](C)O2,inactive: 0.964
17,C[C@H](CO)N1C[C@H](C)[C@@H](CN(C)Cc2ccc3c(c2)OCO3)Oc2ncc(Br)cc2C1=O,inactive: 1.05
18,C[C@@H]1CN([C@H](C)CO)C(=O)Cc2cc(NC(=O)Cn3cnnn3)ccc2O[C@H]1CN(C)S(C)(=O)=O,inactive: 1
